Test results taken from PubChem BioAssay AID686978 (National Center for Advancing Translational Sciences (NCATS), 2013).
In all, about 420,000 compounds went through this assay and about 64,000 (15%) were called active. This list was built around the results that the source calls inconclusive (neither active nor inactive); the mix of calls is not that of the screen. The call rests on the fitted dose curve; in most records, active means well fitted inhibition curve with a large enough effect; inconclusive means small, poorly fitted or top-dose-only effect; inactive means flat fitted curve, though single readings scatter. No potency is given beside an inconclusive call; the fits are too rough.

assay: qHTS for Inhibitors of human tyrosyl-DNA phosphodiesterase 1 (TDP1): qHTS in cells in absence of CPT; details: DT40 Tdp1-/- hTDP1 cells, no CPT, ATP luminescence, 48 h; activity change, negative = growth inhibition: at 46.2 µM (top of the series); further: nearly all actives have a fitted effect of over 55% in size
Summary of the method: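 Readout: luminescence from CellTiter-Glo after 30 min in the dark at RT. Cells: DT40 Tdp1-/- with stable hTDP1, 400/well. Exposure: compounds alone, ≥48 hr, 37 °C.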
On the % scale 0 is the no-effect control and ±100 the full control effect; potency means the concentration at half of the fitted maximal effect; tags describe the fitted curve by direction and shape.

Row | Compound | Potency | activity change, negative = growth inhibition
1 | CCOC(=O)c1ccccc1NC(=O)Cn1c(-c2nonc2N)nc2ccccc21 | active: 0.92 µM | 
2 | CCCc1ccc(-c2c(C)sc(NC(=O)c3ccnn3C)c2C#N)cc1 | active: 20.6 µM | 
3 | Cc1cccc(C)c1NC(=O)c1cc(S(=O)(=O)N2CCc3ccccc32)cn1C |  | inactive: -22.7%
4 | COc1ccccc1N(C(C)=O)C1=C(Cl)C(=O)c2ccccc2C1=O | active: 0.731 µM | 
5 | Nc1ccc(C(=O)Nc2cccc(NC(=O)c3ccc(N)cc3)c2)cc1 | inconclusive [inhibitor, partial curve] | 
6 | CCOc1ccccc1C(=O)Nc1c(NC)c2ccccc2oc1=O | inconclusive [inhibitor, full curve, poor fit] | 
7 | CC1(C)C2CCC1(C)C(OC(=O)c1ccc(O)cc1)C2 (configuration not stated) | inconclusive [inhibitor, partial curve, poor fit] | 
8 | O=C(CCC(=O)N1CCCCCC1)NCc1ccc(F)cc1 |  | inactive: -0.434%
9 | COc1cc(C(=O)NC(=S)Nc2ccc([N+](=O)[O-])cc2C)cc(OC)c1OC | inconclusive [inhibitor, partial curve] | 
10 | O=[N+]([O-])c1ccc2c(c1)Nc1nc3ccccc3nc1N2 | inconclusive [inhibitor, single point] | 
11 | CCN1C(=O)c2cccc3c(S(=O)(=O)N(C(=O)c4ccncc4)c4ccc(OC)cc4)ccc1c23 | inconclusive [inhibitor, single point] | 
12 | O=C(NN=C(Cc1ccccc1)Cc1ccccc1)c1ccccc1O | inconclusive [inhibitor, single point] | 
13 | O=C(NCC1CC1)c1csc([C@@H]2O[C@H](CO)[C@H](O)[C@H](O)[C@H]2O)n1 |  | inactive: 7.89%
14 | O=C(NCCN1CCc2ccccc2C1)Nc1ccc([N+](=O)[O-])cc1 | active: 23.1 µM | 
15 | CC(C)NC[C@@H](O)COc1ccccc1-n1cccc1 | inconclusive [inhibitor, partial curve] | 
16 | Cc1ccc(/C=N/NC(=O)CCCOc2ccc(Cl)cc2Cl)cc1[N+](=O)[O-] |  | inactive: -27.5%
17 | O=C(C[n+]1ccccc1)N/N=C/c1ccc(O)cc1 |  | inactive: -28.4%
18 | COc1ccc(-c2nc(Cn3c(SCc4ccc(F)cc4)nc4ccncc43)c(C)o2)cc1OC | active: 20.6 µM | 
19 | Cc1ccc(S(=O)(=O)N(C)c2ccc(C(=O)NCC(c3ccco3)N3CCCC3)cc2)cc1 (configuration not stated) | active: 16.4 µM | 
20 | Cc1cc(C(=O)COC(=O)CN=C2NS(=O)(=O)c3ccccc32)c(C)n1CCc1ccc(Cl)cc1 | inconclusive [inhibitor, single point] | 
21 | COC(=O)CCCC1=CC2=CC(=O)C(C)(OC(=O)c3cccs3)C(=O)C2=CN1CCc1c[nH]c2ccccc12 (configuration not stated) |  | inactive: -22.4%
22 | Cc1ccc(-c2nn(-c3ccccc3)cc2/C=N/NC(=O)c2ccc(Br)o2)cc1 | inconclusive [inhibitor, single point] | 
23 | Cc1ccc(C(=O)NCCc2nnc3ccc(SCC(=O)N4CCCCC4)nn23)cc1 |  | inactive: -14.9%
24 | CCOC(=O)C1CCCN(S(=O)(=O)c2ccc(S(=O)(=O)N3CCCC3)cc2)C1 (configuration not stated) | active: 3.66 µM | 

Row | Compound | Potency | activity change, negative = growth inhibition
25 | Cn1c(=O)oc2cc(S(=O)(=O)N3CCCC(C(=O)Nc4ccc(Br)cc4F)C3)ccc21 (configuration not stated) |  | inactive: -28.9%
26 | CCOc1ccc(/C=N/NC(=O)c2cc(-c3cccn3C)n[nH]2)cc1 | inconclusive [inhibitor, partial curve, poor fit] | 
27 | NS(=O)(=O)c1cccc(NC(=O)CN2CCC(Cc3ccccc3)CC2)c1 |  | inactive: -26.4%
28 | COc1ccc(S(=O)(=O)N(Cc2ccc(OC)c(OC)c2)Cc2ccco2)cc1 | active: 18.4 µM | 
29 | Cc1cc(OCC(=O)NCc2ccncc2)ccc1Cl |  | inactive: -20.5%
30 | CN(C)CCCN(C(=O)c1ccc(S(=O)(=O)N2CCc3ccccc3C2)cc1)c1nc2c(F)cc(F)cc2s1 | inconclusive [inhibitor, single point] | 
31 | O=C(OCC1OC2OC3(CCCCC3)OC2C2OC3(CCCCC3)OC12)c1ccccc1 (configuration not stated) | inconclusive [inhibitor, single point] | 
32 | COc1ccc(OCCCn2c(=O)oc3ccc(C)cc32)cc1 | inconclusive [inhibitor, single point] | 
33 | Cc1cc(C)nc(NC(=O)Cc2ccc(Br)cc2)n1 |  | inactive: 4.62%
34 | O=C(Nc1ccc(Nc2ccccc2)cc1)c1ccco1 | active: 20.6 µM | 
35 | O=C(c1ccc(CS(=O)Cc2ccc(Cl)cc2)o1)N1CCN(c2ccc(F)cc2)CC1 (configuration not stated) |  | inactive: -2.69%
36 | COc1ccccc1/C=N/NC(=O)CSc1ccc2ccccc2n1 | inconclusive [inhibitor, single point] | 
37 | COc1ccccc1NC(=O)Nc1nnc(Cc2ccccc2F)s1 | inconclusive [inhibitor, partial curve, poor fit] | 
38 | CCN(CC)S(=O)(=O)c1cccc(C(=O)N[C@H](C(=O)OCC(N)=O)C(C)C)c1 |  | inactive: -15.1%
39 | O=C(CSc1nc2c(oc3ccccc32)c(=O)n1Cc1ccco1)Nc1cccc(Cl)c1 | active: 20.6 µM | 
40 | O=C(Nc1cccc(O)c1)c1ccc(Br)c(S(=O)(=O)N2CCCCC2)c1 |  | inactive: -29.4%
41 | COc1cccc(NC(=S)NC(=O)c2c(Cl)c(C)nn2C)c1 |  | inactive: -8.21%
42 | COc1ccc(CNC(=O)c2sc(=O)n(Cc3ccccc3C)c2C)cc1 | inconclusive [inhibitor, single point] | 
43 | Cc1cc(NC(=O)Nc2cccs2)no1 | inconclusive [inhibitor, single point] | 
44 | CCc1ccc2[nH]c(C(=O)Nc3ccc4c(c3)OCO4)cc2c1 | inconclusive [inhibitor, partial curve] | 
45 | CN(Cc1ccccc1)C(=O)c1ccc(NC(=O)Cc2cccc(NC(=O)C3CCN(C(=O)C4CCCC4)CC3)c2)cc1 | inconclusive [inhibitor, partial curve] | 
46 | CC1(C)CC(=O)C(C2(O)C(=O)N(Cc3ccccc3)c3ccccc32)CO1 (configuration not stated) | active: 5.17 µM | 
47 | CC(C)c1nc(C(=O)N2CCCC(N3CCN(c4cccc(Cl)c4)CC3)C2)cs1 (configuration not stated) | inconclusive [inhibitor, single point] | 
48 | O=C(CCN=C1NS(=O)(=O)c2ccccc21)Nc1ccc(F)cc1Cl |  | inactive: -2.94%

Row | Compound | Potency | activity change, negative = growth inhibition
49 | C=CCc1ccccc1OCC(O)CN1CCN(c2ccc(C)cc2)CC1 (configuration not stated) | inconclusive [inhibitor, single point] | 
50 | CCOC(=O)c1nncc(-c2ccccc2)n1 |  | inactive: 6.69%
51 | C[C@@H]1CCCCO[C@H](CN(C)C(=O)Nc2ccc(F)cc2)[C@@H](C)CN([C@H](C)CO)C(=O)c2cc(NC(=O)c3ccccc3)ccc2O1 | inconclusive [inhibitor, single point] | 
52 | COCCOC(=O)c1[nH]c2c(c1C)C(=O)CC(c1cc(OC)ccc1OC)C2 (configuration not stated) | active: 2.59 µM | 
53 | O=C(CCc1nnc2ccc(N3CCC4(CC3)OCCO4)nn12)NCc1ccc(F)cc1 |  | inactive: -24%
54 | CCCNC(=O)C(Cc1ccccc1F)NC(=O)c1ccccn1 (configuration not stated) |  | inactive: -11%
55 | COc1cc2c(cc1NS(=O)(=O)c1cccc(C#N)c1)n(C)c(=O)n2C | inconclusive [inhibitor, single point] | 
56 | CCc1ccc2nc(N(CCCN(C)C)C(=O)c3ccc(S(=O)(=O)N4CCCC4)cc3)sc2c1 | inconclusive [inhibitor, single point] | 
57 | Cc1cc(C)cc(NC(=O)CN2C(=O)c3ccccc3Sc3ccc(C(=O)N4CCOCC4)cc32)c1 | inconclusive [inhibitor, single point] | 
58 | O=S(=O)(c1ccccc1)n1cc(-c2cccc3nccn23)c2ccccc21 | inconclusive [inhibitor, single point] | 
59 | C/C(N)=C(/C#N)C(=O)COC(=O)c1cc(C)n(-c2ccc(F)cc2)c1C | inconclusive [inhibitor, single point] | 
60 | Cc1ccccc1C(=O)c1c[nH]c(C(=O)NCc2cccs2)c1 | inconclusive [inhibitor, single point] | 
61 | Cc1nc2nc[nH]n2c(=O)c1CCOC(=O)c1c(F)cccc1F |  | inconclusive: -34.3% [inhibitor]
62 | COCCCNC(=S)NNC(=O)C(O)(c1ccccc1)c1ccccc1 |  | inactive: -6.89%
63 | OCC1CCCCN1C(=S)Nc1ccc(Cl)cc1Cl (configuration not stated) | inconclusive [inhibitor, single point] | 
64 | Cc1ccc(N2CCN(C(=O)N3CCCC3)CC2)cc1C |  | inactive: 7.81%
65 | Cc1ccc(-n2c(SCC(=O)c3c(N)n(C)c(=O)n(C)c3=O)nc3sc4c(c3c2=O)CCCC4)c(C)c1 | inconclusive [inhibitor, full curve] | 
66 | O=C(COC(=O)CSc1ccc([N+](=O)[O-])cc1)NCC1CCCO1 (configuration not stated) |  | inactive: -1.99%
67 | O=C(NC1CCCCC1)C(c1ccco1)N(C(=O)c1csnn1)C1CCCC1 (configuration not stated) | active: 16.4 µM | 
68 | CC(CC(=O)Nc1nnc(CC(C)(C)C)s1)c1ccccc1 (configuration not stated) | inconclusive [inhibitor, single point] | 
69 | CC(C(=O)NCCN1C(=O)S/C(=C\c2cccnc2)C1=O)N1C(=O)c2ccccc2C1=O (configuration not stated) |  | inactive: 11.9%
70 | COc1ccc(C(CNC(=O)COc2c(C)cc(C)cc2C)N2CCOCC2)cc1 (configuration not stated) | inconclusive [inhibitor, single point] | 
71 | COc1ccc(Cl)cc1C(=O)NNC(=O)c1cccc(S(=O)(=O)N(C)C)c1 | inconclusive [inhibitor, single point] | 
72 | COc1cc(-c2ccc3oc(-c4cccc(C)c4)c(C#CC4(O)CCCCC4)c3c2)cc(OC)c1OC | active: 16.4 µM | 
